Article PMC9440930
No constants are given. Whether binding was seen depends on the method and setting. Binding seen in cells or lysates may run through a third protein. Some entries that bind do so weakly or less than the wild type. One block for each molecule: values may come before it.

Sequences of proteins named here, by UniProt entry; tags and fusion partners are left off.
UniProt P09405: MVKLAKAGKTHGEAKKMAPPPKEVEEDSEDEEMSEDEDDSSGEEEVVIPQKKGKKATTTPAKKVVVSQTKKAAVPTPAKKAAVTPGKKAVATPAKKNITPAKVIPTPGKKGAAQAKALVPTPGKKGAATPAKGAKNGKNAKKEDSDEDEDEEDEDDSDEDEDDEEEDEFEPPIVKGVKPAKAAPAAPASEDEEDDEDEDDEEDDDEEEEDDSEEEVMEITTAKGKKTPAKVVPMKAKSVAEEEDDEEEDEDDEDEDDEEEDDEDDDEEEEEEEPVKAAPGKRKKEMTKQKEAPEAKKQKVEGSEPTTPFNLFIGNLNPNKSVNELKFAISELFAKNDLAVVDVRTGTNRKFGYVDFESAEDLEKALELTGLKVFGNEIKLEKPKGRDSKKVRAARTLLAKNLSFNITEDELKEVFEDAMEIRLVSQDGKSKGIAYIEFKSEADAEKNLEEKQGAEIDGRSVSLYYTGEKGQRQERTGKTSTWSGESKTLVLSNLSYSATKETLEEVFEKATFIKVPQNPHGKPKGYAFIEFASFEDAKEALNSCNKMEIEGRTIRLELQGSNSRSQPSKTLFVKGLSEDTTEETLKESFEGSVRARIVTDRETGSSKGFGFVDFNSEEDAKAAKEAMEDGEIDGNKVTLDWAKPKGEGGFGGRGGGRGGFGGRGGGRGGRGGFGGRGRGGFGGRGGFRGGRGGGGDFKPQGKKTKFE
UniProt Q9D753: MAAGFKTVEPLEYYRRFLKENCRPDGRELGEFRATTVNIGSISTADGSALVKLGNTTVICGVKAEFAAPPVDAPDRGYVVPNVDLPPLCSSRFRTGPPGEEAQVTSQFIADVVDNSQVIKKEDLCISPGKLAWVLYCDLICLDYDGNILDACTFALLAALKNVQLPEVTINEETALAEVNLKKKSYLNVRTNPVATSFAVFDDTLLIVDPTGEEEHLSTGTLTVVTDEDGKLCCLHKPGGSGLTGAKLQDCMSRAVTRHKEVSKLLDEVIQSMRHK
UniProt Q9CRA8: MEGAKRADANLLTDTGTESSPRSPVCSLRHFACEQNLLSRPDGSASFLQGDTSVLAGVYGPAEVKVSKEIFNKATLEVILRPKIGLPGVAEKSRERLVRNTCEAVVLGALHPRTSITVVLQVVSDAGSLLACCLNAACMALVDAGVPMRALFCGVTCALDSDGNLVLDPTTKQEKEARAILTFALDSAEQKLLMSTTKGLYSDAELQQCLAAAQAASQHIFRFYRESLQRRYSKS

Assays:
[1] = molecular target: nucleolin (endogenous NCL) (mouse (endogenous in RAW 264.7)) (UniProt P09405); experiment: co-IP; RAW 264.7 cells stimulated with LPS; lysed with 1% digitonin; protein G-Sepharose, washed with 0.1% digitonin; immunoblot
[2] = molecular target: nucleolin (endogenous NCL) (mouse (endogenous in RAW 264.7)) (UniProt P09405); experiment: co-IP; unstimulated RAW 264.7 cells (no LPS); lysed with 1% digitonin; protein G-Sepharose; immunoblot
[3] = molecular target: nucleolin (endogenous NCL) (mouse (endogenous in RAW 264.7)) (UniProt P09405); experiment: co-IP; RAW 264.7 cells stimulated with LPS for 12 h; lysed with 1% NP-40; protein G-Sepharose, washed with 0.1% NP-40; immunoblot
[4] = molecular target: nucleolin (endogenous NCL) (mouse (endogenous in RAW 264.7)) (UniProt P09405); experiment: co-IP; RAW 264.7 cells stimulated with LPS for 12 h in the presence of okadaic acid (OA, 20 nM); lysed with 1% NP-40; immunoblot
[5] = molecular target: nucleolin (endogenous NCL) (mouse (endogenous in RAW 264.7)) (UniProt P09405); experiment: co-IP; unstimulated RAW 264.7 cells (no LPS); lysed with 1% NP-40; protein G-Sepharose; immunoblot

- binding [1]: binds
Molecule: Rrp43, core exosome component (from UniProt Q9D753 1-276)
- binding [2]: no binding (condition: unstimulated cells (without LPS))

- binding [1]: binds
Molecule: Rrp46, core exosome component (from UniProt Q9CRA8 1-235)
- binding [2]: no binding (condition: unstimulated cells (without LPS))

- binding [3]: binds
- binding [4]: binds weakly
B1: Rrp6, nucleus-specific exosome component (protein, UniProt P56960 1-887)
chain: MAPPSPREHQSAPATSATKPDAEMVLPGFPDADSFVKFALGSVVAVTKASGGLPQFGDEYDFYRSFPAFQAFCETQGDRLLQCMSRVMQYHGCRSNIKDRSKVTELEDKFDLLVDTNDVILERVGMLLDEASGVNKHQQPVLPAGLQVPKTIVSSWNRKAGEYGKKAKSETFRLLHAKNIVRPQLRFREKIDNSNTPFLPKIFVKPNARKPLPLALSKERRERPQDRPEDLDVPPALADFIHQQRTQQVEQDMFAHPYQYELDHFTPPQSVLQRPKPQLYRAVGETPCHLVSSLDELVELNEKLLGCQEFAVDLEHHSYRSFLGLTCLMQISTRTEDFIVDTLELRSDMYILNESLTDPAIVKVFHGADSDIEWLQKDFGLYVVNMFDTHQAARLLNLARHSLDHLLRLYCGVESNKQYQLADWRIRPLPEEMLSYARDDTHYLLYIYDRMRLELWERGNHQPVQLQVVWQRSRDICLKKFVKPIFTDESYLELYRKQKKHLNSQQLTAFQLLFAWRDKTARREDESYGYVLPNHMMLKIAEELPKEPQGIIACCNPVPPLVRQQINEMHLLIQQAREMPLLKSENAAGVRKSGPLPSAERLENDLFGPHDCSHAPPDNYQNTSTDGTLPLQKQPSLFTEGKEETSVDAGCLLATAVITLFSEPNTEEGGKTPLTVAQKKAQNIMQSFENPFRMFLPSLEHKAHISQAAKFDPSSKIYEISNRWKLASQVQVQKEPKEATKKKVAEQTAAREEAKEEAAAGVLEQAIPVRQQAALENATKKRERATSDLRTIEQKQEKKRLKSSKKAKDPDPPGKDFSPYDYSQSDFRAFAGDSKSKPSSQFDPNKLAPSGKKGVGAKKCKQSVGNKSMSFAVGKSDRGFRHNWPKR
- binding [5]: no binding (condition: unstimulated cells (without LPS))
